The test system of the experiment is NCI-H322M lung. Kind of experiment: NCI-60 cell line screen, 48 h.

Where “and” joins values, the source holds several entries; their conditions need not be identical. Identical values can stand only once.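 Where inhibition never reached the appropriate level, the endpoint shown equals the highest concentration tested. Otherwise, values were interpolated linearly from a five-concentration, 48-hour dose response in 96-well plates. Here, GI50 denotes the concentration required for 50% inhibition of growth. At the TGI there is no net growth.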

In the case of `CC(C)(C)c1ccc(OCCOc2ccc(C(C)(C)C)cc2N)c(N)c1`, the TGI was > 100 µM.
Still for that read-out and setting: as for `Cc1cc(C)nc(NS(=O)(=O)c2ccc(NC(=O)c3c4ccccc4nc4ccccc34)cc2)n1`, the figure is > 100 µM.
As for `Cc1ccc2cnc(N)c(C#Cc3cc(C(=O)Nc4ccc(CN5CCN(C)CC5)c(C(F)(F)F)c4)cnc3C)c2c1`, the GI50 is 0.926 µM and the TGI was 2.78 µM.
Consider `CCc1c(C#N)c(=O)[nH]c(=O)n1CCN1CCN(C(=O)NCCCCCCNC(=O)N2CCN(CCn3c(CC)c(C#N)c(=O)[nH]c3=O)CC2)CC1`, for which the TGI is > 100 µM.
On to `Cn1ncc(-c2ccc3c(=O)[nH]nc(CN)c3c2)c1-c1c(F)c(Cl)cc(OC2CC2)c1C#N`, for which the GI50 was 18.1 µM and 13.9 µM; the TGI is 52.5 µM and 36.7 µM.
As for `COc1cc(/C=C2\C(=O)N(c3cccc([N+](=O)[O-])c3)C(c3ccccc3)S2(=O)=O)cc(OC)c1OC` (stereo not drawn), the TGI is > 100 µM.
On the same count and under the same terms, as for `O=S1(=O)c2ccccc2Oc2ccc(C(/C=N/O)=N/O)cc21`, the figure is 52.2 µM; as for `COc1ccc2c(c1)C(=O)CC1c3cnccc3C(=O)N21` (stereo not drawn), > 100 µM.
Take `Nc1ncnc2c1ncn2C1OC(CSCC(F)(F)F)C(O)C1O` (stereo not drawn): the TGI is > 100 µM.
On the same count and under the same terms, as for `C1CSCCCSCCCSCCCSCCCSCCCSCCCSCCCSC1`, the figure is > 100 µM; as for `NC(=O)CNC(=O)[C@@H]1CC(OCCC(=O)O)CN1C(=O)C1CCCN1C(=O)OCc1ccccc1` (stereo partly drawn), > 100 µM.
Still for that read-out and setting: as for `N#CN1C2CCC1CC(=O)C2`, the figure is > 100 µM; as for `Cn1ccnc1CCc1c(Cl)cccc1Cl`, > 100 µM.
On the same count and under the same terms, in the case of `OC1[C@@H]2[C@@H](O)CCCN2C[C@@H](O)[C@H]1O` (stereo partly drawn) it was > 100 µM; in that of `IC[P+]1(c2ccccc2)CCCC1`, 67.7 µM.
Consider `O=C(/C=C(/C=C/c1ccc2[nH]ccc2c1)OB(F)F)/C=C/c1ccc2[nH]ccc2c1`, for which the GI50 was 3.11 µM and the TGI is > 100 µM.
On to `CCc1n[nH]c(=O)n1CCCCCCCCCCCCn1c(CC)n[nH]c1=O`, for which the TGI was > 100 µM.
`FC(F)(F)c1cccc(-c2nc3nc(Cl)c(Cl)nc3[nH]2)c1` displayed a TGI of 12.4 µM.
The same measure, in the same setting: as for `CC(=O)NC1C(OCc2ccccc2)OC(CO)C(O)C1OCC(=O)N1CCCC1C(=O)N[C@@H](CCC(=O)NCCCCNc1c2ccccc2nc2cccc([N+](=O)[O-])c12)C(N)=O` (stereo partly drawn), the figure is 71 µM.
For the molecule `NC(=O)Nc1c(Cl)cc(S(N)(=O)=O)cc1Cl`, the TGI was > 100 µM.
Same read-out and setting: as for `CN(C)CCNC(=O)Cn1ccc(=O)c2cc([N+](=O)[O-])ccc21`, the figure is > 100 µM; as for `O=C(/C=C/c1ccccc1)Oc1cccc2cccnc12`, > 91.2 µM; as for `CC12CCC(CC(=O)/C1=C(/Br)I)C2(C)C` (stereo not drawn), 33.8 µM.
For the molecule `O=S(=O)(/N=c1\scc(-c2ccccc2)n1-c1ccccc1)c1ccc(N2N=C3c4ccccc4CC3C2c2ccc(Cl)cc2)cc1` (stereo not drawn), the GI50 is 25.2 µM and the TGI is > 100 µM.
In the case of `O=C(N/N=C/c1ccccc1O)N/N=C/c1ccccc1O`, the TGI was > 100 µM.
On to `CC1CC(C)CC(C)C(O)/C(C#N)=C/C=C/CC(C2CCCC2C(=O)O)OC(=O)CC(O)C(C)C1` (stereo not drawn), for which the GI50 was 0.0419 µM; the TGI was 0.28 µM and 0.241 µM.
On to `c1ccc(-c2nc(-c3ccccn3)nc(-c3ccccn3)n2)nc1`, for which the GI50 was 27 µM and the TGI was > 100 µM.
`CCn1nc(C)c2c1C(=O)NCC(=O)N2`: the TGI was > 100 µM.
Still for that read-out and setting: in the case of `O=[N+]([O-])c1ccccc1N=Nc1c(O)[nH]c2cccc(C(F)(F)F)c12` it was > 100 µM; in that of `COC(=O)C1=CO[C@@H](OC2CC(CO)C(O)C(O)C2O)[C@@H]2[C@@H](C)[C@@H](OC(=O)/C=C/c3ccccc3)[C@@H](O)[C@H]12` (stereo partly drawn) (tested in a mixture with another compound), > 100 µM.
Still for that read-out and setting: in the case of `Cc1c(/C=N/NC(=O)c2ccccc2O)c(=O)n(-c2ccccc2)n1C` it was > 100 µM; in that of `O=C(NCCCOC(=O)CCCCCCCCC(=O)OCCCNC(=O)NC(=O)c1c[nH]c(=O)[nH]c1=O)NC(=O)c1c[nH]c(=O)[nH]c1=O`, > 100 µM.
For the molecule `N#C[Se]Cc1cc(-c2ccccc2)n(-c2ccc(S(N)(=O)=O)cc2)n1`, the GI50 was 1.76 µM and the TGI came out at 6.63 µM.
For `CN1CCC(CNc2cc(C3(C(=O)Nc4cc(C(=O)Nc5ccc(Cl)c(C(F)(F)F)c5)ccc4F)CC3)ncn2)CC1`, in that order: 2 µM and 5.45 µM.
With `CC(N=NNc1ccc(-c2nc3ccccc3[nH]2)cc1)C(=O)O` (stereo not drawn), the TGI was > 100 µM.
As for `COc1cccc(N2C(=O)CSC2c2cccc(Oc3ccccc3)c2)c1` (stereo not drawn), the TGI was > 100 µM.
`O=C(O)c1nc(NCc2nc3cc(Cl)ccc3o2)n[nH]1`: the GI50 was > 100 µM and the TGI is > 100 µM.
`C=C(c1ccccc1)C1(O)CCCCC1N` (stereo not drawn): the TGI is > 100 µM.
In turn, `CC(=O)c1c(O)c(C)c(O)c(Cc2c(O)c3c(c(C(=O)/C=C/c4ccccc4)c2O)OC(C)(C)C=C3)c1O` returned a TGI of 11.9 µM.
The same measure, in the same setting: in the case of `COc1ccc([C@H]2[C@H]3COC(=O)[C@H]3C(C#N)=C3Sc4ccccc4N32)cc1` it was > 100 µM; in that of `CC(C)(C)c1ccccc1N1C(=O)c2ccc3c4c(ccc(c24)C1=O)N(c1ccccc1C(C)(C)C)C3=O`, > 100 µM; in that of `C1=C(c2ccccc2)SC(N2CCCCC2)S1` (stereo not drawn), > 100 µM.
On to `Cc1cc([NH-])c([NH-])cc1C.[Cl][Pt+2][Cl]`, for which the GI50 was 18.3 µM and the TGI is 44.3 µM.
For `Cc1ccc2c(c1)-c1nc(N)c(C#N)c(-c3ccc(Cl)cc3)c1CCS2(=O)=O`, the TGI is 92.4 µM.
In the case of `N#Cc1c(-c2ccc(Cl)cc2)c2c(nn3c4ccc5ccccc5c4nnc23)[nH]c1=O`, the TGI was determined as 37.4 µM.
In the case of `O=C(Nc1cccc(Cl)c1)Nn1cnnc1`, the GI50 is > 50 µM and the TGI was > 100 µM.
The matching figures for `Clc1ccc(-c2cn3ccnc3c(-c3ccc(Cl)cc3)n2)cc1`: 18.8 µM and > 100 µM.
Take `CC(=O)Nc1ccc2c(C)c3c(nc2n1)[nH]c1ccccc13`: the TGI is > 100 µM.
Same read-out and setting: in the case of `C=CCC1(C#N)C(=S)NC2=C(C(=O)CC(C)(C)C2)C1c1ccccc1` (stereo not drawn) it was 64.4 µM.
In the case of `O=C1/C(=C/c2ccc([N+](=O)[O-])cc2)CN(C(=O)CCN2CCC(=NO)CC2)C/C1=C\c1ccc([N+](=O)[O-])cc1`, the GI50 was 2.2 µM and the TGI came to 6.24 µM.
In the case of `CC(=O)OCc1c2ccccc2c(C)c2c1cc(F)c1ccccc12`, the TGI was > 100 µM.
For the molecule `COc1ccc(C2=Nn3c(nnc3-c3cc(Cl)cc(Cl)c3Cl)SC2)cc1`, the GI50 was 4.53 µM and the TGI was > 100 µM.
For the molecule `O=c1[nH]c(Nc2ccccc2)nc2c1ncn2CC(O)CSCCO` (stereo not drawn), the TGI was > 100 µM.
On the same count and under the same terms, in the case of `Cc1nc(C(N)=O)c(N)n1CCN1CCN(C(=O)CCCCCCCCCCNC2N=CNc3nc[nH]c32)CC1` (stereo not drawn) it was > 100 µM.
The same measure, in the same setting: in the case of `CC1CC[C@@]2(OC1)OC1C[C@H]3[C@@H]4CC=C5CC(OC6OC(CO)C(OC7OC(CO)C(O)C(OC8OCC(O)C(O)C8O)C7OC7OC(CO)C(OC8OC(C)C(OC9OC(C)C(O)C(O)C9O)C(O)C8O)C(O)C7O)C(O)C6O)CCC5(C)[C@H]4CCC3(C)C1[C@@H]2C` (stereo partly drawn) it was 11.5 µM.
Still for that read-out and setting: in the case of `N#CCCN(CCC#N)c1ccc(/C=C2\N=C(c3ccccc3)N(c3ccc(F)cc3)C2=O)cc1` it was > 100 µM; in that of `COC(=O)C1=C(O)C(C(=O)OC)C2CC(=O)CC1C2(C)C` (stereo not drawn), > 100 µM.
Consider `COc1ccc(-c2noc(C(=O)O)c2-c2cc(OC)c(OC)c(OC)c2)cc1`, for which the GI50 is 5.36 µM and the TGI is > 100 µM.

The values are drawn from PubChem BioAssay (NCI).
